The values that follow come from US20260263442A1, “METHOD FOR TREATING L-DOPA-INDUCED DYSKINESIA USING BEFIRADOL” (Neurolixis, Inc., priority 2023, published 2026).

In series [1] the test system is L-DOPA-induced dyskinesia (LID) in Parkinson's disease patients. The series is described as follows: PD Home Dyskinesia eDiary, Good ON Time, Phase 2a study. The series is classed as in vivo, human. As to conditions: baseline, n=15.
For series [2], the system named is patients with moderate to severe L-DOPA-induced dyskinesia (LID) in Parkinson's disease. On the set-up: species or system human. As to conditions: in vivo.
Series [3] shares this test system. The series can be described thus: Columbia Suicide Severity Rating Scale (C-SSRS), Phase 2a study. The arrangement: species or system human. As to conditions: in vivo.

Take `Cc1ccc(CNCC2(F)CCN(C(=O)c3ccc(F)c(Cl)c3)CC2)nc1` [NLX-112]: in series [1], the “Proportion of good ON time” value was 57.6%. Besides, the “Physical examination findings, changes from baseline” value in series [2] is listed as “no clinically significant changes from baseline”. The Suicidal ideation/behavior entry in series [3] is recorded as “no indication of increased suicidal ideation/behavior”.
